# Results: the supplement of paper PMC8728848
# The other results are listed elsewhere or left out.
# How the values were obtained:
# Test in all cases: glycan array binding signal (z-score within array); higher = stronger binding
# Conditions in all cases: glycan notation: IUPAC condensed, linker removed
# Glc(b1-4)Glc = biological target: Glc(b1-4)Glc
# In short: (§1)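 Negative Z-scores can be read as non-binding. The Z-score is calculated within each array and then averaged across arrays of one protein sequence at different concentrations or buffers and across linkers. Arrays, 3228 in all, were curated from the Consortium for Functional Glycomics database and kept only where the protein sequence was available.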
# Glc(b1-6)Glc = biological target: Glc(b1-6)Glc
# In short: as §1
# GlcA(b1-3)Gal = biological target: GlcA(b1-3)Gal
# In short: as §1
# GlcA(b1-3)GlcNAc = biological target: GlcA(b1-3)GlcNAc
# In short: as §1
# GlcA(b1-6)Gal = biological target: GlcA(b1-6)Gal
# In short: as §1
# [1] = biological target: GlcA3S(b1-3)Gal(b1-4)GlcNAc(b1-2)Man
# In short: as §1
# [2] = biological target: GlcA3S(b1-3)Gal(b1-4)GlcNAc(b1-3)Gal(b1-4)Glc
# In short: as §1
# [3] = biological target: GlcNAc(a1-3)Gal(b1-4)GlcNAc
# In short: as §1
# [4] = biological target: GlcNAc(a1-4)Gal(b1-3)GlcNAc
# In short: as §1
# [5] = biological target: GlcNAc(a1-4)Gal(b1-4)GalNAc
# In short: as §1
# [6] = biological target: GlcNAc(a1-4)Gal(b1-4)GlcNAc
# In short: as §1
# [7] = biological target: GlcNAc(a1-4)Gal(b1-4)GlcNAc(b1-3)Gal(b1-4)Glc
# In short: as §1
# [8] = biological target: GlcNAc(a1-4)Gal(b1-4)GlcNAc(b1-3)Gal(b1-4)GlcNAc
# In short: as §1
# [9] = biological target: GlcNAc(a1-4)Gal(b1-4)GlcNAc(b1-3)Gal(b1-4)GlcNAc(b1-3)Gal(b1-4)GlcNAc
# In short: as §1
# [10] = biological target: GlcNAc(a1-4)Gal(b1-4)GlcNAc(b1-3)Gal(b1-4)[Fuc(a1-3)]GlcNAc(b1-3)Gal(b1-4)[Fuc(a1-3)]GlcNAc
# In short: as §1
# [11] = biological target: GlcNAc(a1-6)Gal(b1-4)GlcNAc
# In short: as §1
# [12] = biological target: GlcNAc(b1-2)Gal(b1-3)GalNAc
# In short: as §1
# [13] = biological target: GlcNAc(b1-2)Man(a1-3)[GlcNAc(b1-2)Man(a1-6)]Man(b1-4)GlcNAc(b1-4)GlcNAc
# In short: as §1
# [14] = biological target: GlcNAc(b1-2)Man(a1-3)[GlcNAc(b1-2)Man(a1-6)]Man(b1-4)GlcNAc(b1-4)[Fuc(a1-6)]GlcNAc
# In short: as §1
# [15] = biological target: GlcNAc(b1-2)Man(a1-3)[GlcNAc(b1-4)][GlcNAc(b1-2)Man(a1-6)]Man(b1-4)GlcNAc(b1-4)GlcNAc
# In short: as §1
# [16] = biological target: GlcNAc(b1-2)Man(a1-3)[GlcNAc(b1-4)][GlcNAc(b1-2)Man(a1-6)]Man(b1-4)GlcNAc(b1-4)[Fuc(a1-6)]GlcNAc
# In short: as §1
# [17] = biological target: GlcNAc(b1-2)[GlcNAc(b1-4)]Man(a1-3)[GlcNAc(b1-2)Man(a1-6)]Man(b1-4)GlcNAc(b1-4)GlcNAc
# In short: as §1
# [18] = biological target: GlcNAc(b1-2)[GlcNAc(b1-4)]Man(a1-3)[GlcNAc(b1-4)][GlcNAc(b1-2)Man(a1-6)]Man(b1-4)GlcNAc(b1-4)GlcNAc
# In short: as §1
# [19] = biological target: GlcNAc(b1-2)[GlcNAc(b1-4)]Man(a1-3)[GlcNAc(b1-4)][GlcNAc(b1-2)[GlcNAc(b1-6)]Man(a1-6)]Man(b1-4)GlcNAc(b1-4)GlcNAc
# In short: as §1
# [20] = biological target: GlcNAc(b1-2)[GlcNAc(b1-4)]Man(a1-3)[GlcNAc(b1-4)][GlcNAc(b1-2)[GlcNAc(b1-6)]Man(a1-6)]Man(b1-4)GlcNAc(b1-4)[Fuc(a1-6)]GlcNAc
# In short: as §1
# [21] = biological target: GlcNAc(b1-2)[GlcNAc(b1-6)]Man(a1-6)[GlcNAc(b1-2)Man(a1-3)]Man(b1-4)GlcNAc(b1-4)GlcNAc
# In short: as §1
# [22] = biological target: GlcNAc(b1-2)[GlcNAc(b1-6)]Man(a1-6)[GlcNAc(b1-2)Man(a1-3)]Man(b1-4)GlcNAc(b1-4)[Fuc(a1-6)]GlcNAc
# In short: as §1
# [23] = biological target: GlcNAc(b1-2)[GlcNAc(b1-6)]Man(a1-6)[GlcNAc(b1-4)][GlcNAc(b1-2)Man(a1-3)]Man(b1-4)GlcNAc(b1-4)GlcNAc
# In short: as §1
# GlcNAc(b1-3)Fuc = biological target: GlcNAc(b1-3)Fuc
# In short: as §1
# GlcNAc(b1-3)Gal = biological target: GlcNAc(b1-3)Gal
# In short: as §1
# [24] = biological target: GlcNAc(b1-3)Gal(b1-3)GalNAc
# In short: as §1
# GlcNAc(b1-3)Gal(b1-4)Glc = biological target: GlcNAc(b1-3)Gal(b1-4)Glc
# In short: as §1
# [25] = biological target: GlcNAc(b1-3)Gal(b1-4)GlcNAc
# In short: as §1
# [26] = biological target: GlcNAc(b1-3)Gal(b1-4)GlcNAc(b1-2)Man(a1-3)[GlcNAc(b1-3)Gal(b1-4)GlcNAc(b1-2)Man(a1-6)]Man(b1-4)GlcNAc(b1-4)GlcNAc
# In short: as §1
# [27] = biological target: GlcNAc(b1-3)Gal(b1-4)GlcNAc(b1-2)Man(a1-3)[GlcNAc(b1-3)Gal(b1-4)GlcNAc(b1-2)Man(a1-6)]Man(b1-4)GlcNAc(b1-4)[Fuc(a1-6)]GlcNAc
# In short: as §1
# [28] = biological target: GlcNAc(b1-3)Gal(b1-4)GlcNAc(b1-2)[GlcNAc(b1-3)Gal(b1-4)GlcNAc(b1-6)]Man(a1-6)[GlcNAc(b1-3)Gal(b1-4)GlcNAc(b1-2)Man(a1-3)]Man(b1-4)GlcNAc(b1-4)GlcNAc
# In short: as §1
# [29] = biological target: GlcNAc(b1-3)Gal(b1-4)GlcNAc(b1-3)Gal(b1-4)GlcNAc
# In short: as §1
binder,measurement,setting,value
"Epa3 (Candida glabrata), Q6VBI8_CANGB (protein) MGSSHHHHHHSSGLVPRGSHMNDLGFSLFEKRELSSQNPFGYPIGCSPQDVAIIPGLTMELYSYPIVSGTPPNCYDASYVDPEYPRTGYLKRKMVGKSTGVTGNLNYKYSVEKACMVKYGNLPAGYNYNEPLTVSNFTMILYGYFKAQTTGLHTFFVNADDLLYINFGAGNAFDCCKREDSKTKLGEYVAYDIWHVDSSKNKVSLFLEKDLYYPIRMFFNNIGKDSSLDLSFSVNGATDQISDFSGYLYSVPDQPDTCPAHIGYDTTCR",glycan array binding signal (z-score),Glc(b1-4)Glc,-0.201
same,glycan array binding signal (z-score),Glc(b1-6)Glc,-0.243
same,glycan array binding signal (z-score),GlcA(b1-3)Gal,-0.282
same,glycan array binding signal (z-score),GlcA(b1-3)GlcNAc,-0.164
same,glycan array binding signal (z-score),GlcA(b1-6)Gal,-0.112
same,glycan array binding signal (z-score),[1],0.055
same,glycan array binding signal (z-score),[2],-0.161
same,glycan array binding signal (z-score),[3],-0.2
same,glycan array binding signal (z-score),[4],-0.2
same,glycan array binding signal (z-score),[5],-0.006
same,glycan array binding signal (z-score),[6],-0.073
same,glycan array binding signal (z-score),[7],-0.086
same,glycan array binding signal (z-score),[8],-0.065
same,glycan array binding signal (z-score),[9],-0.143
same,glycan array binding signal (z-score),[10],0.413
same,glycan array binding signal (z-score),[11],0.189
same,glycan array binding signal (z-score),[12],-0.023
same,glycan array binding signal (z-score),[13],-0.197
same,glycan array binding signal (z-score),[14],-0.212
same,glycan array binding signal (z-score),[15],-0.298
same,glycan array binding signal (z-score),[16],-0.362
same,glycan array binding signal (z-score),[17],-0.237
same,glycan array binding signal (z-score),[18],-0.319
same,glycan array binding signal (z-score),[19],-0.181
same,glycan array binding signal (z-score),[20],-0.314
same,glycan array binding signal (z-score),[21],-0.361
same,glycan array binding signal (z-score),[22],0.029
same,glycan array binding signal (z-score),[23],-0.398
same,glycan array binding signal (z-score),GlcNAc(b1-3)Fuc,-0.314
same,glycan array binding signal (z-score),GlcNAc(b1-3)Gal,-0.236
same,glycan array binding signal (z-score),[24],-0.093
same,glycan array binding signal (z-score),GlcNAc(b1-3)Gal(b1-4)Glc,-0.367
same,glycan array binding signal (z-score),[25],-0.201
same,glycan array binding signal (z-score),[26],-0.167
same,glycan array binding signal (z-score),[27],0.225
same,glycan array binding signal (z-score),[28],0.405
same,glycan array binding signal (z-score),[29],-0.302
